Out of some 310,000 compounds screened, about 14,000 (4.5%) showed an effect of 50% or more. Effects have a minus sign here. Some of the results follow.
biological target: human ether-à-go-go-related gene (hERG) potassium channel (human, UniProt Q12809); assay: primary screen, population patch clamp on CHO cells stably expressing hERG
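Further: peak tail current of the secondary pulse compared with the same well before compound.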

Sequence of human ether-à-go-go-related gene (hERG) potassium channel (Q12809 whole entry, looked up): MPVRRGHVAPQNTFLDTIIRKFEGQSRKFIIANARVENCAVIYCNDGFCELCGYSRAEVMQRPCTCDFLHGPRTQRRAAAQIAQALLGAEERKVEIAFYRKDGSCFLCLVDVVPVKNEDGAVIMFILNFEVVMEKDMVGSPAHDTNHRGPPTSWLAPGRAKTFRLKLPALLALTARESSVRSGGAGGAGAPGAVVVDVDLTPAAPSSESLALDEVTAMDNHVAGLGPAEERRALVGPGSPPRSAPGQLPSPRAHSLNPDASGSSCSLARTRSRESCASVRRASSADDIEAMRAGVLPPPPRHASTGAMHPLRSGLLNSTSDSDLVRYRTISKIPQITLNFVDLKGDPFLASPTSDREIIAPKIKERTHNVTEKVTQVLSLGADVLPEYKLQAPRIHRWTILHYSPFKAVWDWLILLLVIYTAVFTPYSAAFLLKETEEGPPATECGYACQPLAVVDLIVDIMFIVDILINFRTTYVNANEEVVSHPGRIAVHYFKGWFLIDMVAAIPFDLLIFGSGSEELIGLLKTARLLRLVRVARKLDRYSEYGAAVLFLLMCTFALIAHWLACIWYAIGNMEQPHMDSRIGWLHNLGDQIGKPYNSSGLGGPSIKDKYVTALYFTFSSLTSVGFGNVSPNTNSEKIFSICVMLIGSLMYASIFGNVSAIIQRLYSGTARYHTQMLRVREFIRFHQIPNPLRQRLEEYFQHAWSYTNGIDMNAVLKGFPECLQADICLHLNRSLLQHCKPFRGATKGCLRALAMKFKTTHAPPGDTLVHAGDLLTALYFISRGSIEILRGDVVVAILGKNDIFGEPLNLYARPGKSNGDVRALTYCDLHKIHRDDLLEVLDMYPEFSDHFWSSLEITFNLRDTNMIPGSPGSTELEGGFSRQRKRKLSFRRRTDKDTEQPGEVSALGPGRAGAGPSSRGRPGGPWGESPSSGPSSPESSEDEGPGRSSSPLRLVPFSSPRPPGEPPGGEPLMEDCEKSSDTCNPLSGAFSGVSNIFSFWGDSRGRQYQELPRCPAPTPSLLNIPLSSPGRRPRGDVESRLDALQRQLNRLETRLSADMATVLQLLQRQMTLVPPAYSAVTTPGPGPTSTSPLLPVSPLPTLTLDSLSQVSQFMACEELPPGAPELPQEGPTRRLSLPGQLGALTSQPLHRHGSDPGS

Structure (SMILES)	hERG current change (%, negative = inhibition) at 10uM [%]
COc1ccc(-c2[nH]ncc2/C=N\NS(=O)(=O)c2ccc(Cl)cc2)cc1	-8.03
Cc1ccc(C(=O)Nc2ccon2)cc1S(=O)(=O)N1CCOCC1	-8.03
CC(C)n1cc(NC(=O)C2CC(c3cccc(Br)c3)=NO2)cn1 (centres unmarked)	-6.11
COc1cc2cc(C(=O)N/N=C/c3ccccc3Cl)[nH]c2cc1OC	18.5
Cc1ccc(C)c(N2CCN(S(=O)(=O)c3ccc4c(c3)NC(=O)CC(=O)N4)CC2)c1	-27.2
COc1ccc(NC(=O)/C=N/O)cc1	13.2
O=C(Nc1cccc([N+](=O)[O-])c1)c1ccc2ccccc2c1O	20.1
CC(OC(=O)C1CC(=O)N(Cc2ccccc2)C1)C(=O)Nc1ccc(F)cc1Cl (centres unmarked)	-26.8
Cc1ccc(-n2c(C)cc(C(=O)CN3CCCCC3)c2C)cc1	-31.9
Cc1cc(-c2nc3ccccc3o2)c2ccccc2n1	-1.57
CCCCNC(=O)c1ccccc1SCc1c(C)noc1C	-1.59
CCc1cc(C(=O)N2CCOCC2)c(NC2=NS(=O)(=O)c3ccccc32)s1	0.974
Cc1ccc(N2CCN(CCc3nc4cc(NS(C)(=O)=O)ccc4n3C)CC2)cc1	-59.8
O=C(O)CN1C(=O)C2(OCCCO2)c2ccccc21	-18.5
COc1ccc(NC(=O)c2c(-c3ccccc3Cl)noc2C)c(OC)c1	4.25
CN(C)S(=O)(=O)c1cccc(NC(=O)COc2cccc(C#N)c2)c1	-27
O=C(Cc1cccs1)Nc1cccc(-c2nc3ccccc3o2)c1	4.75
CN(CC(=O)Nc1ccc2c(c1)OCO2)S(=O)(=O)c1ccc(F)cc1	-4.45
CC1CCC(C#N)(N(C)C(=O)CSc2nnc(C3CC3)n2C2CC2)CC1 (centres unmarked)	-14.3
CCC(C)[C@H](NC(=O)c1cc2cc(Cl)ccc2n1C)C(=O)N1CCC(C(=O)O)CC1 (some centres unmarked)	20.1
CCOc1ccc(C(CC(=O)O)NC(=O)C23CC4CC(CC(C4)C2)C3)cc1 (centres unmarked)	-6.54
CCCCC/C(=N\NC(=O)Nc1ccccc1)c1ccccc1	8.43
CCCCc1nnc(NC(=O)CN2C(=O)NC3(CCCCC3)C2=O)s1	-5.43

Structure (SMILES)	hERG current change (%, negative = inhibition) at 10uM [%]
CCOc1cccc(CN2CCN(CCCc3ccccc3)C(CCO)C2)c1O (centres unmarked)	-76.3
CCOC(=O)CNC(=O)OC1CCN2Cc3ccccc3N=C12.Cl (centres unmarked)	-0.36
Cc1ccccc1CN1CCN(S(C)(=O)=O)CC1	-1.89
O=C(O)c1ccccc1C(=O)NCC(O)c1ccccc1 (centres unmarked)	12.9
COc1cc(/C=N/NC(N)=O)cc([N+](=O)[O-])c1O	18.1
COc1ccc(CC(=O)NNC(=O)c2cc(C)[nH]n2)cc1	24.3
CC1CCc2nc3ccc(S(=O)(=O)N4CCC(C(=O)NCc5ccccc5Cl)CC4)cc3c(C(=O)O)c2C1 (centres unmarked)	7.04
COCC(C)n1c(COc2ccccc2F)nnc1SCC(=O)Nc1oc(C)c2c(C)n[nH]c(=O)c12 (centres unmarked)	8.78
COc1ccccc1NC(C)=O	6.25
CC(=O)Nc1ccc(OCC(O)Cn2ccnc2)cc1 (centres unmarked)	27.2
O=C(CN1C(=O)COc2ccccc21)NCc1ccccn1	-2.72
Cc1ccc(S(=O)(=O)Cc2nc3ccccc3c(=O)[nH]2)cc1	-13.7
C=CCN1C(=O)c2ccc(C(=O)N(C)CC(=O)Nc3ccc(OCC)c(OCC)c3)cc2C1=O	-35.5
CCCN(CCC)Cc1c(C(=O)N/N=C/c2ccc(Br)cc2)nnn1-c1nonc1N	-15.3
Cc1cc(NC(=O)CCC(=O)N(CC(=O)NC2CCCC2)c2ccc(F)cc2)no1	-4.83
COC(=O)CCCNC(=O)CN1CC(c2ccccc2)CC1=O (centres unmarked)	-2.25
COCCNC(=O)c1cc(OC)c(OC)cc1[N+](=O)[O-]	20.1
CCOc1ccc(/C(O)=C2/C(=O)C(=O)N(CC3CCCO3)C2c2ccco2)cc1 (centres unmarked)	14.2
Cc1cc(C)c(S(=O)(=O)NCc2cccnc2)c(C)c1	-2.97
O=C(Cc1ccc(F)cc1)Nc1ccc(S(=O)(=O)N2CCCC2)cc1	-2.15
O=C1COc2ccc(C(=O)COC(=O)CNC(=O)c3ccco3)cc2N1	-12.6
COc1ccc(CCN(C)C(=O)CN2C(=O)NC3(CCCCC3C)C2=O)cc1OC (centres unmarked)	3.33
CCOc1ccc(NC(=O)c2c(C)nn(Cc3ccccc3)c2Cl)cc1	12.3

Structure (SMILES)	hERG current change (%, negative = inhibition) at 10uM [%]
CC(C)(C)CC(=O)NCc1cccs1	-4.18
CCCCCN1C=CC=C/C1=C\C=C(C#N)C#N	-70.9
COc1ccc(S(=O)(=O)N2CCOc3ccccc32)cc1	-1.55
COC(=O)CSc1nc(C)cc(C)c1C#N	19.6
COc1cc(Cl)cc(C2NC(=O)NC(C)=C2C(=O)NCc2ccccc2)c1O (centres unmarked)	-1.46
Cn1c(=O)oc2cc(S(=O)(=O)N3CCN(c4cccc(Cl)c4)CC3)ccc21	2.39
COc1ccccc1OCC(=O)NCc1cccs1	18.3
CCOC(=O)c1ccc(NC(=S)NCc2ccc(F)cc2)cc1	1.35
Cc1c(NS(=O)(=O)c2cccc(C(=O)NCc3ccncc3)c2)c(=O)n(-c2ccccc2)n1C	6.38
CCSc1nnc(NC(=O)CCNS(=O)(=O)c2ccccc2F)s1	12.1
O=C(Nc1nc(-c2ccc3c(c2)OCO3)cs1)C1COc2ccccc2O1 (centres unmarked)	13.1
CCc1cc(C(=O)Cc2ccc(F)cc2)c(O)cc1O	-12.7
COc1cccc(Cn2cc(C(=O)NCCN(C)C)nn2)c1	0.176
C/C(=N\NC(=S)Nc1cccc(C)c1)c1ccco1	-6.35
O=C(CSc1nncc(=O)[nH]1)NCc1ccccc1	12.9
CSCCC(NC(=O)COc1ccccc1)C(=O)N(C)CC(=O)Nc1ccc(C)cc1 (centres unmarked)	-20.6
CCOC(=O)CC(NS(=O)(=O)c1ccc(OC)c(OC)c1)c1cccc([N+](=O)[O-])c1 (centres unmarked)	-12.4
C=CCn1c(SCC(=O)N2CCOCC2)nc2scc(-c3ccco3)c2c1=O	-48.8
CC(C)(C)C(=O)OCc1nc(-c2ccc(Cl)cc2)cs1	7.41
CC(C)CCNC(=O)c1ccc(OC2CCN(S(=O)(=O)N(C)C)CC2)cc1	20.4
COc1cccc(-c2nc(CS(=O)(=O)CC(=O)NCCc3cc(OC)ccc3OC)c(C)o2)c1	-7.78
O=C(CN(C(=O)c1csnn1)c1ccc(F)cc1)NCc1ccc(F)cc1	10.1
COc1ccc(COC(=O)C2=C(C)NC(=O)NC2c2ccccc2F)cc1 (centres unmarked)	21.7

Structure (SMILES)	hERG current change (%, negative = inhibition) at 10uM [%]
COc1ccc(C(O)c2nccn2C)cc1 (centres unmarked)	-4.68
O=C(Cc1ccccc1)Nc1cc([N+](=O)[O-])ccc1N1CCOCC1	-36.2
Cc1nc2nc(-c3ccccc3)cn2nc1C	-4.11
CC1(C)[C@@H](O)CC[C@]2(C)C3C(O)C=C4[C@H]5C[C@@](C)(C(=O)O)CC[C@]5(C)CC[C@]4(C)[C@]3(C)CC[C@@H]12 (some centres unmarked)	10.7
O=C(O)C(=O)O.O=S(=O)(c1ccc(Cl)c(C(F)(F)F)c1)N1CCN(CC(O)COCC2CCCO2)CC1 (centres unmarked)	-12.4
COc1ccc(CCN(C)C(=O)/C=C/c2c(Cl)nc3ccccn23)cc1OC	2.79
O=C([O-])CSc1nc2c(c(C(F)(F)F)n1)CCCC2.[Na+]	12.2
COc1ccc(NC(=O)c2sc3nc(N4CCOCC4)c4c(c3c2N)CC(C(C)C)OC4)c(OC)c1 (centres unmarked)	16.5
O=C(Oc1ccc(/C=N/O)cc1)c1ccccc1Cl	9.35
O=c1[nH][nH]c(-c2ccccc2O)c1C(C[N+](=O)[O-])c1ccc(Cl)cc1Cl (centres unmarked)	10.6
COC(=O)C1=C(C)N(C)C(=S)NC1c1ccc(Cl)cc1 (centres unmarked)	-3.81
O=C(NCCN1CCOCC1)c1c(O)nc2ccccn2c1=O	10.9
C=CCOc1c(Br)cc(CNn2cn[nH]c2=S)cc1OC	-22.9
O=C(c1ccccc1)N1CCN(CCc2ccccc2)CC1	-43.6
O=C(Cc1ccc([N+](=O)[O-])cc1)N1N=C(c2ccncc2)CC1(O)C(F)(F)F (centres unmarked)	14.1
CN1C(=O)C(Cc2cccc3ccccc23)C(=O)N(C)C1=O	4.79
COc1cc(C[C@@H](C)N)c(OC)cc1I.Cl	-11.8
S=c1nc(-c2ccc(Br)cc2)[nH]c2ccccc12	16.1
CCCN(CCC)CCNS(=O)(=O)c1ccc2c(c1)oc(=O)n2C	14.8
Cc1nnc(NC(=O)CSc2nnc(CNC(=O)c3ccccc3)n2-c2ccccc2)s1	6.12

Reference: paper PMC4336329 (PLoS ONE, 2015)
